Screen size: about 39,000 compounds; about 220 (0.56%) showed activity. This is one part of the list.
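Further: static incubation at 37 °C against the wild-type strain, values averaged over two biological replicates.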

For this experiment, the system named is Escherichia coli K-12 BW25113. The experiment is described as follows: relative growth (OD600 normalised to plate interquartile mean) (fraction); higher = less growth inhibition, active = 0.2 or less. The note with it: 50 µM; LB; incubation time: overnight (16-24 h).
As for `O=C(C[C@H]1C[C@H]2c3cc(NC(=O)c4ccc5c(c4)OCO5)ccc3O[C@H]2[C@@H](CO)O1)NCc1ccccn1`, the relative growth is inactive: 1.02.

`C[C@H](C(=O)O)c1ccc(C2CCCCC2)c2ccccc12`: the relative growth was inactive: 0.98.

Take `COc1cccc(CNC(=O)c2cc3c(c(-c4cccc(-c5ccc(C#N)cc5)c4)n2)[C@@H](CCO)N([S@](=O)C(C)(C)C)C3)c1`: the relative growth is inactive: 0.974.

Regarding `C[C@@H]1CN([C@H](C)CO)C(=O)c2cccc(NC(=O)Nc3ccccc3)c2O[C@@H]1CN(C)C(=O)Nc1cccc2ccccc12`, the relative growth is inactive: 1.01.

As to `C=CC1=C(C)c2cc3[nH]c(cc4nc(cc5[nH]c(cc1n2)c(C)c5CCC(=O)O)C(CCC(=O)O)=C4C)c(C)c3C=C`, the relative growth was inactive: 1.04.

Take `CCN1OCN(c2nc(N(C)C)nc(N(C)C)n2)C1=N`: the relative growth was inactive: 0.95.

With `C=C(C)Cn1c(N2CCN(CCO)CC2)nc2c1c(=O)n(C)c(=O)n2C`, the relative growth was inactive: 0.985.

Take `Cc1noc(C)c1NC(=O)N(C)C[C@@H]1OCCCC[C@H](C)Oc2ccc(NC(=O)Cc3ccccc3)cc2C(=O)N([C@H](C)CO)C[C@H]1C`: the relative growth was inactive: 0.998.

Regarding `CC(=O)NCC(=O)N1CCC2(CC1)CN(c1cnn(C)c1)C(=O)CO2`, the relative growth is inactive: 1.01.

On to `C[C@@H]1CN([C@H](C)CO)C(=O)c2cc(NC(=O)CCN3CCOCC3)ccc2O[C@H]1CN(C)S(=O)(=O)c1cn(C)cn1`, for which the relative growth was inactive: 1.04.

As to `C[C@@H]1CN([C@H](C)CO)C(=O)c2cc(NC(=O)Nc3cccc4ccccc34)ccc2O[C@@H](C)CCCCO[C@H]1CN(C)C(=O)NC1CCCCC1`, the relative growth is inactive: 1.02.

For the molecule `CC(C=CC1=C(C)CCCC1(C)C)=CC=CC(C)=CC(=O)O`, the relative growth was inactive: 0.95.

Turning to `C[C@H](CO)N1C[C@H](C)[C@H](CN(C)S(C)(=O)=O)OCCCC[C@H](C)Oc2ccc(NC(=O)c3ccncc3)cc2C1=O`, the relative growth was inactive: 1.01.

As for `Cn1nnc(NCc2ccccc2)n1`, the relative growth was inactive: 0.994.

For `C[C@@H]1CN([C@@H](C)CO)C(=O)c2cccc(NS(C)(=O)=O)c2O[C@H]1CN(C)Cc1ccc(C(=O)Nc2ccccc2N)cc1`, the relative growth is inactive: 0.992.

As for `CC=NN(C)C=O`, the relative growth is inactive: 1.05.

For the molecule `CC(C)NC(=O)N(C)C[C@H]1Oc2cc(C#Cc3ccc(F)cc3)ccc2S(=O)(=O)N([C@@H](C)CO)C[C@H]1C`, the relative growth is inactive: 1.02.

Take `C[C@@H]1CN([C@H](C)CO)C(=O)c2cc(NC(=O)Nc3ccc(C(F)(F)F)cc3)ccc2O[C@H]1CN(C)S(C)(=O)=O`: the relative growth is inactive: 0.968.

`C[C@@H]1CN([C@H](C)CO)C(=O)CCCn2nncc2CO[C@@H]1CN(C)S(=O)(=O)c1ccc(C#N)cc1`: the relative growth was inactive: 1.01.

For the molecule `COC[C@H]1CN(C)N=C(C2CC2)O1`, the relative growth is inactive: 1.01.

For the molecule `C[C@H]1CCCCO[C@@H](CN(C)C(=O)NC2CCCCC2)[C@@H](C)CN([C@@H](C)CO)C(=O)c2cc(NC(=O)CCC(F)(F)F)ccc2O1`, the relative growth is inactive: 0.99.

On to `COc1ccc(S(=O)(=O)N(C)C[C@@H]2Oc3ncc(-c4ccncc4)cc3C(=O)N([C@@H](C)CO)C[C@@H]2C)cc1`, for which the relative growth was inactive: 1.01.

On to `CN(C)C(=O)N1CC2(CCN(S(=O)(=O)N(C)C)CC2)[C@]2(CCN(C)C2=O)C1`, for which the relative growth was inactive: 0.997.

For `O=C(C[C@H]1C[C@H]2c3cc(NC(=O)c4cccnc4)ccc3O[C@H]2[C@@H](CO)O1)NCc1cc(F)ccc1F`, the relative growth was inactive: 1.

For the molecule `CCCNC(=O)[C@@]1(Sc2ccc(C)cc2)CC(=O)N(Cc2ccccc2C(F)(F)F)[C@@H]1c1ccc(CO)cc1I`, the relative growth was inactive: 0.99.

Take `C[C@H]1O[C@@H](O[C@H]2[C@@H](O)C[C@H](O[C@H]3[C@@H](O)C[C@H](O[C@H]4CC[C@@]5(C)[C@H](CC[C@@H]6[C@@H]5CC[C@]5(C)[C@@H](C7=CC(=O)OC7)CC[C@]65O)C4)O[C@@H]3C)O[C@@H]2C)C[C@H](O)[C@@H]1O`: the relative growth is inactive: 0.997.

For the molecule `C[C@H]1CN([C@@H](C)CO)C(=O)c2cc(NC(=O)CCN3CCOCC3)ccc2O[C@@H]1CN(C)S(=O)(=O)c1cccs1`, the relative growth was inactive: 0.975.

`CCOC(=O)CSc1nnc2c3sc4nc(N5CCOCC5)c5c(c4c3ncn12)CC(C)(C)OC5`: the relative growth is inactive: 1.01.

Consider `CC(C)(C)[S@@](=O)N1Cc2cc(C(=O)NCc3ccc4c(c3)OCO4)nc(-c3cccc(-c4cccnc4)c3)c2[C@H]1CCO`, for which the relative growth is inactive: 1.02.

As for `Cn1c(=O)[nH]c(=O)c2c1ncn2CCN1CCOCC1`, the relative growth is inactive: 0.985.

As for `C[C@H](CO)N1C[C@H](C)[C@H](CN(C)C(=O)Nc2ccccc2C(F)(F)F)OCc2ccccc2-c2c(n(C)c3ccccc23)C1=O`, the relative growth is inactive: 1.04.

For `COc1ccc(CN(C)C[C@H]2Oc3ccc(NC(=O)C4CC4)cc3CC(=O)N([C@H](C)CO)C[C@H]2C)cc1`, the relative growth was inactive: 0.991.

Consider `C[C@H](CO)N1C[C@H](C)[C@H](CN(C)Cc2ccncc2)Oc2ccc(NS(=O)(=O)c3ccc(F)cc3)cc2CC1=O`, for which the relative growth is inactive: 1.02.

For the molecule `Cc1noc(C)c1NC(=O)Nc1ccc2c(c1)C(=O)N([C@@H](C)CO)C[C@H](C)[C@@H](CN(C)C(=O)Nc1c(C)noc1C)OCCCC[C@H](C)O2`, the relative growth is inactive: 0.997.

As to `C[C@@H]1CN([C@H](C)CO)C(=O)c2cc(NC(=O)CCCN(C)C)ccc2O[C@@H](C)CCCCO[C@@H]1CN(C)Cc1ccc(C(F)(F)F)cc1`, the relative growth is inactive: 0.931.

Consider `CC(=O)/C(C)=N/O`, for which the relative growth is inactive: 1.01.

For the molecule `CN(C)CC#Cc1ccc([C@H]2[C@@H](CO)N3C(=O)CN(C(=O)c4cccnc4)C[C@@H]23)cc1`, the relative growth is inactive: 0.991.

Turning to `C[C@@H]1CN([C@H](C)CO)C(=O)c2cc(NC(=O)CCCCCC(=O)Nc3ccccc3N)ccc2O[C@@H]1CN(C)C(=O)Nc1ccc(F)cc1`, the relative growth was inactive: 0.967.

For `C[C@@H]1CN([C@@H](C)CO)C(=O)c2cccc(NS(=O)(=O)c3cn(C)cn3)c2O[C@@H]1CN(C)C(=O)Nc1ccc2c(c1)OCO2`, the relative growth was inactive: 0.987.

For the molecule `C[C@H](NC(=O)N(C)C[C@@H]1OCc2ccccc2-c2ccccc2C(=O)N([C@@H](C)CO)C[C@@H]1C)c1ccccc1`, the relative growth is inactive: 0.987.

On to `C[C@@H]1CN([C@@H](C)CO)C(=O)c2c(c3ccccc3n2C)-c2ccccc2CO[C@@H]1CN(C)Cc1ccc(Oc2ccccc2)cc1`, for which the relative growth was inactive: 1.01.

With `COc1ccc(C#Cc2cnc3c(c2)C(=O)N([C@@H](C)CO)C[C@@H](C)[C@H](CN(C)C(=O)CN(C)C)O3)cc1`, the relative growth is inactive: 0.994.

Turning to `C[C@H](CO)N1C[C@H](C)[C@H](CN(C)CC2CCCCC2)OCCCC[C@H](C)Oc2ccc(NC(=O)Nc3ccc(C(F)(F)F)cc3)cc2C1=O`, the relative growth is inactive: 0.945.

In the case of `Cc1ccc(S(=O)(=O)Nc2cccc3c2O[C@H](CN(C)S(C)(=O)=O)[C@@H](C)CN([C@H](C)CO)C3=O)cc1`, the relative growth is inactive: 0.981.

In the case of `C[C@@H]1CN([C@@H](C)CO)C(=O)c2cc(NC(=O)C3CCCCC3)ccc2O[C@@H](C)CCCCO[C@@H]1CN(C)S(=O)(=O)c1ccccc1`, the relative growth was inactive: 1.03.

In the case of `C[C@@H]1CCCCO[C@@H](CN(C)C)[C@@H](C)CN([C@H](C)CO)C(=O)c2cc(NC(=O)CCCN(C)C)ccc2O1`, the relative growth is inactive: 0.997.

For `COc1ccc(CN(C)C[C@@H]2Oc3c(NC(=O)c4cnccn4)cccc3C(=O)N([C@H](C)CO)C[C@H]2C)cc1`, the relative growth was inactive: 1.03.

As for `C[C@@H]1CN([C@H](C)CO)C(=O)c2cccc(NC(=O)c3nc4ccccc4s3)c2O[C@H]1CN(C)C(=O)Nc1ccc(F)cc1`, the relative growth is inactive: 1.02.

For the molecule `C[C@@H]1CN([C@@H](C)CO)C(=O)c2cc(NS(=O)(=O)c3cccs3)ccc2O[C@@H](C)CCCCO[C@H]1CN(C)S(=O)(=O)c1cn(C)cn1`, the relative growth is inactive: 1.02.

On to `C[C@@H]1CN([C@H](C)CO)C(=O)c2cccc(NS(C)(=O)=O)c2O[C@@H]1CN(C)C(=O)Nc1ccc(C(F)(F)F)cc1`, for which the relative growth is inactive: 1.03.

In the case of `CC(C)(C)[S@](=O)N1Cc2cc(C(=O)NCC(F)(F)F)nc(-c3cccc(-c4cccc(F)c4)c3)c2[C@@H]1CCO`, the relative growth is inactive: 0.975.

For `CN1CCN(C(=O)C[C@H]2CC[C@H]3[C@H](COc4ccc(NC(=O)c5cccs5)cc4C(=O)N3C)O2)CC1`, the relative growth was inactive: 1.02.

As to `COc1ccc(NC(=O)Nc2ccc3c(c2)C(=O)N([C@@H](C)CO)C[C@@H](C)[C@H](CN(C)C(=O)NC(C)C)OCCCC[C@H](C)O3)cc1`, the relative growth was inactive: 0.996.

`C[C@H]1CN([C@@H](C)CO)C(=O)c2cc(C#Cc3ccc(F)cc3)cnc2O[C@H]1CN(C)Cc1ccccn1`: the relative growth is inactive: 1.01.

On to `Nc1ccn(C2OC(CO)C(O)C2O)c(=O)n1` (stereo unspecified), for which the relative growth was inactive: 0.903.

Turning to `C[C@H](CO)N1C[C@H](C)[C@H](CN(C)CC2CCCCC2)Oc2c(NC(=O)c3cnccn3)cccc2C1=O`, the relative growth was inactive: 1.

On to `C[C@@H]1CCCCO[C@H](CN(C)C(=O)NC2CCCCC2)[C@@H](C)CN([C@H](C)CO)C(=O)c2cc(NC(=O)NC3CCCCC3)ccc2O1`, for which the relative growth is inactive: 0.994.

Turning to `COc1ccc(NC(=O)N(C)C[C@@H]2OCCCC[C@H](C)Oc3ccc(NC(=O)Nc4cccc5ccccc45)cc3C(=O)N([C@@H](C)CO)C[C@H]2C)cc1`, the relative growth is inactive: 1.03.

For the molecule `C[C@@H]1CN([C@H](C)CO)C(=O)c2cc(NC(=O)CCC(F)(F)F)ccc2O[C@@H](C)CCCCO[C@H]1CN(C)S(=O)(=O)c1ccc(F)cc1`, the relative growth is inactive: 1.04.

For the molecule `C[C@H](CO)N1C[C@H](C)[C@H](CN(C)C(=O)Nc2ccc(C(F)(F)F)cc2)OCCCC[C@H](C)Oc2ccc(NC(=O)c3ccccc3)cc2C1=O`, the relative growth was inactive: 0.991.

`O=C1N(Cc2ccccc2)Cc2ccccc2C[C@]12N=C(c1ccc(OCCCO)cc1)O[C@@H]2c1ccccc1`: the relative growth was inactive: 1.02.

(Values after the supplement of paper PMC9446081.)
